The results in this text go back to PMC6919601, “Identification of Plasmodium dipeptidyl aminopeptidase allosteric inhibitors by high throughput screening” (PLoS ONE, 2019).

Among all 110,000 compounds or so, about 230 (0.21%) showed an effect of 50% or more. This is one part of the list.
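Further: 30 min substrate incubation versus DMSO and 10 µM JCP410 controls.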

DPAP1, sequence (Q8IIJ9 whole entry, looked up): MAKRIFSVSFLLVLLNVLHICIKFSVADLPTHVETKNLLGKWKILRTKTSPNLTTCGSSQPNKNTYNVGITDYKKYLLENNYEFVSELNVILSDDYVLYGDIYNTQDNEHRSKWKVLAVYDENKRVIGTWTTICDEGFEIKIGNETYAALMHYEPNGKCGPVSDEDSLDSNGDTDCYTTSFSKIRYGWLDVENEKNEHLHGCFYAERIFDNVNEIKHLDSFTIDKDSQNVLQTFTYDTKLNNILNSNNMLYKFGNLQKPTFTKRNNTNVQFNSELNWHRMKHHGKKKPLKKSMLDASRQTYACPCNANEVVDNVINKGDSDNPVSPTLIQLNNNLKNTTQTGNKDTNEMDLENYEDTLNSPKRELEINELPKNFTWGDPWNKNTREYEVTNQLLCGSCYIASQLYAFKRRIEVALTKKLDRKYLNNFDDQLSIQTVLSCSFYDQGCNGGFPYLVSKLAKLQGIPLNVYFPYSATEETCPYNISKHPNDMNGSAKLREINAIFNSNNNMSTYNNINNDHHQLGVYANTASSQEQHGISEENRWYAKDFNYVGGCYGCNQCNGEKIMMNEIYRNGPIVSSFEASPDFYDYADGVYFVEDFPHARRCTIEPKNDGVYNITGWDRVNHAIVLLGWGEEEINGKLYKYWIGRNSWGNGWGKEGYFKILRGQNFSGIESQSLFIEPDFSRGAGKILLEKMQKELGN

The test has as its target DPAP1 (Plasmodium falciparum, UniProt Q8IIJ9). In words: primary screen, percent inhibition; read by cleavage of a fluorogenic dipeptide substrate; higher = more effect of the substance. Set-up: species or system P. falciparum D10 trophozoite lysates; single well.
For the compound `CCOc1ccc(/N=C2\SC(C(=O)O)CC(=O)N2C)cc1` (centres unmarked), the “% Inhibition @ 10 uM” value is given as -10.7%.
In the case of `Nc1cc(N)c2c(c1)C(=O)c1ccccc1C2=O` it was -0.771%; in that of `C/C(=C\c1ccccc1)c1nnc2[nH]c(=O)n(C)c(=O)c2n1`, -6.5%.
Regarding `COC(=O)c1ccc(Cn2nc(-c3cc(C)ccc3C)ccc2=O)cc1`, the “% Inhibition @ 10 uM” value was -1.16%.
In the case of `CCN(Cc1ccccc1)C(=O)CSc1nncn2c1cc1sccc12` it was -13.7%; in that of `O=[N+]([O-])c1ccc(N2CCN(Cc3ccccc3F)CC2)cc1`, 3.16%.
In the case of `O=C(Nc1nccs1)c1cc(S(=O)(=O)N2CCOCC2)c(Cl)cc1Cl` it was 2.7%; in that of `O=C(CSc1nnc(-c2ccc(Cl)cc2)o1)Nc1nccs1`, 2.97%; in that of `CCOC(=O)c1cnc(-c2ccccc2O)nc1Cl`, -3.21%.
In the case of `OCCn1c(-c2ccc(Cl)cc2)cs/c1=N\c1ccccc1` it was 2.69%.
In the case of `CCc1cccc(C)c1-n1cccc1/C=C1\C(=N)N2N=CSC2=NC1=O`, the “% Inhibition @ 10 uM” value is on record as -5.22%.
With `O=C(O)CCC(=O)N1N=C(c2ccccc2)CC1c1ccccc1Cl` (centres unmarked), the “% Inhibition @ 10 uM” value is recorded as 4.67%.
Consider `COc1ccc(CCNC(=O)Cn2ncn3c(cc4cc(F)ccc43)c2=O)cc1OC`, for which the “% Inhibition @ 10 uM” value is 4.84%.
`Cc1ccc(-n2nc(C)c3c(C)cc(=O)n(CC(=O)NCc4ccco4)c32)cc1`: the “% Inhibition @ 10 uM” value was 0.0575%.
In the case of `COc1ccc(CN2CCC(N3CCCCC3)CC2)cc1OCc1ccccc1` it was -6.6%; in that of `CCOC(=O)N1CCC(N2C(=O)c3ccccc3C2Nc2ccc(Cl)cn2)CC1` (centres unmarked), -2.83%.
In the case of `COCCNC(=O)c1cc(-c2ccc(OC)c(OC)c2)on1` it was 9.67%.
For `O=C(Cn1ccc2cc(S(=O)(=O)N3CCCC3)ccc21)NCC1CCCO1` (centres unmarked), the “% Inhibition @ 10 uM” value is given as 0.00226%.
In the case of `COc1ccc(CCNCc2c[nH]c3ccccc23)cc1` it was -3.67%.
In the case of `COc1ccc(Br)cc1S(=O)(=O)Nc1cccc(-c2cn3ccsc3n2)c1` it was 6.29%.
In the case of `Cc1ccc(NC(=O)c2ccc(CSc3ncnc4[nH]cnc34)cc2)cc1` it was -6.43%; in that of `CCOC(=O)C1=CN(C)C=C(C(=O)OCC)C1c1ccc2c(c1)OCO2`, -3.23%; in that of `CCCOc1ccccc1C1C2=C(O)CC(c3ccc4c(c3)OCO4)CC2=NC(C)=C1C(=O)OC` (centres unmarked), 2.7%.
For the compound `Cn1c(=O)n(C)c2cc(/C=C3/SC(=O)N(CC(=O)Nc4cccc(Cl)c4)C3=O)ccc21`, the “% Inhibition @ 10 uM” value is 14.3%.
In the case of `CC(=O)NCCc1nc2ccccc2n1Cc1ccc(C(C)C)cc1` it was 1.12%; in that of `COc1ccc(-n2nc3c(c2NC(=O)c2cc(C)cc(C)c2)CS(=O)(=O)C3)cc1`, 5.9%; in that of `O=C(C1=C(O)C(=O)N(Cc2cccnc2)C1c1cccnc1)c1ccco1` (centres unmarked), 4.11%.
In the case of `CCc1ccc(C2CC(=O)N=C(NC(=O)c3ccc(Oc4ccccc4)cc3)N2)cc1` (centres unmarked) it was 0.723%; in that of `N=C(NOC(=O)c1ccc2c(c1)OCO2)c1ccncc1`, -9.83%; in that of `CCc1ccc(-n2nc3ccc(N)cc3n2)cc1`, 2.38%.
In the case of `Cc1onc(-c2ccccc2Cl)c1C(=O)Nc1ccc(F)cc1` it was -5.85%; in that of `CCCCc1ccc(-c2ccc(Br)cc2O)nc1`, -0.807%.
As for `CN(Cc1ccc([N+](=O)[O-])cc1)C1CCCCC1`, the “% Inhibition @ 10 uM” value is recorded as -1.78%.
In the case of `CCOC(=O)N1CCN(C(=O)CSc2nc(-c3ccc(C)cc3)cn2-c2ccc(OC)cc2)CC1` it was 77.3%; in that of `CCOc1cc(C(=O)Nc2ccncc2)cc(OCC)c1OCC`, 4.12%.
In the case of `Cc1cc(Br)ccc1OCC(=O)Nc1ccc(S(N)(=O)=O)cc1` it was -6.08%.
On to `CCCOc1ccc(-c2nonc2NC(=O)C(C)Oc2ccccc2OC)cc1OCCC` (centres unmarked), for which the “% Inhibition @ 10 uM” value was -3.24%.
On to `Cc1cc(NCc2ccccc2)nc2cc(O)ccc12`, for which the “% Inhibition @ 10 uM” value is 2.34%.
In the case of `CC(C)CCNC(=O)C1CCCN(S(=O)(=O)N2CCOCC2)C1` (centres unmarked) it was 0.745%; in that of `CC(C)CSC1=NSC2=NC(=O)/C(=C\c3ccc[nH]3)C(=N)N12`, 2.59%.
In the case of `N#Cc1ccccc1Sc1ccccc1C(=O)N1CCOCC1` it was 0.392%; in that of `Cc1ccc(N)cc1S(=O)(=O)NCCO`, -8.03%.
For the compound `O=C1c2ccccc2C(Nc2ccc(Cl)cn2)N1c1ccccn1` (centres unmarked), the “% Inhibition @ 10 uM” value is listed as -1.03%.
Consider `O=C1OC(c2ccc(Br)cc2)=N/C1=C\c1c(F)cccc1Cl`, for which the “% Inhibition @ 10 uM” value is -0.441%.
In the case of `O=C(COc1ccc(Cl)cc1)Nc1nc(-c2ccccc2)cs1` it was 3.55%; in that of `COCc1cc(C)nc(SCC(=O)N2CCCCC2)c1C#N`, -2.54%; in that of `COc1cccc(N(CC(=O)Nc2cc(C)cc(C)c2)S(=O)(=O)c2ccccc2)c1`, 2.33%.
In the case of `CC12CCC(C(=O)Nc3c(Cl)cccc3Cl)(C(=O)C1=O)C2(C)C` (centres unmarked) it was -3.08%.
In the case of `O=C(CCC1COc2ccccc2O1)Nc1ncc(C(F)(F)F)cc1Cl` (centres unmarked) it was 4.58%; in that of `Cc1ccc(S(=O)(=O)NCCc2cc3c(C)ccc(C)c3nc2O)cc1`, 2.54%.
